According to PubChem BioAssay AID651820 (National Center for Advancing Translational Sciences (NCATS), 2012):
Out of some 340,000 compounds screened, about 12,000 (3.5%) were called active. The inconclusive results got no clear call from the source; some entries with a clear call stand among them for comparison. Calls follow the shape of the dose curve; as a rule, active = well fitted inhibition curve with a large enough effect; inconclusive = small, poorly fitted or top-dose-only effect, or another doubt; inactive = no such curve, though single readings can be large or run the other way. No potency is given beside an inconclusive call; the fits are too rough.

Experiment: qHTS Assay for Inhibitors of Hepatitis C Virus (HCV)
Details: Huh7.5.1 HCVcc-Cre (HCVcc is cell-culture hepatitis C virus) infection, luciferase reporter, 44 h; series mostly up to 41.8 µM
Procedure, shortened: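 Infectious HCV cell culture screen: compound-treated cells (1,000/well, pre-plated 4 h) are infected with HCVcc-Cre at roughly 0.5 moi and grown 44 h. Infection is quantified by luciferase signal after 15 min substrate incubation at room temperature.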
Potency is read from the fitted curve at half-maximal effect; tags tell the direction and shape of the fitted curve.

SMILES | Potency
CCCCNC(=O)[C@@H]1CC=C[C@@H]2CCN(Cc3ccc(Cl)c(Cl)c3)C(=O)[C@@H]21 | inconclusive [inhibitor, single point]
Cc1cc(C)cc(NC(=O)COC(=O)c2n[nH]c3ccccc23)c1 | inconclusive [inhibitor, partial curve, poor fit]
COc1ccc(N(CC(=O)Nc2ccccc2C(=O)NCC(C)C)S(C)(=O)=O)cc1 | inactive
C/C(=N\Nc1nc2ccccc2[nH]1)c1ccc([N+](=O)[O-])cc1 | active: 10 µM
O=C(O)/C=C/c1nc(-c2ccccc2)n2ccccc12 | inactive
CCOP(=S)(OCC)SCCSCC | inconclusive [inhibitor, single point]
CCCNC(=S)N1CCN(c2nc(C)nc3sc4c(c23)CCCC4)CC1 | inconclusive [inhibitor, partial curve, poor fit]
Cc1ccc(O)c(Nc2ncnc3ccccc23)c1 | inconclusive [inhibitor, single point]
O=C(N/N=C\c1c(O)ccc2ccccc12)c1cncc(Br)c1 | inconclusive [inhibitor, full curve]
Cc1c(Cl)cccc1NC(=S)NC1CCN(Cc2ccccc2)CC1 | inconclusive [inhibitor, partial curve]
Cc1cc(Cn2nc(C(=O)NCc3cccc(C(F)(F)F)c3)cc2-c2ccccc2)on1 | inconclusive [inhibitor, single point]
CCOc1ccc(OCC(O)CNC2CCN(Cc3ccccc3)CC2)cc1 (stereo not drawn) | inconclusive [inhibitor, full curve]
Cc1nc(N)sc1C(=O)N1N=N1 | inactive
COc1ccccc1NC(=O)C1CCCN(c2ncnc3c2nc2n3CCCCC2)C1 (stereo not drawn) | inconclusive [inhibitor, partial curve, poor fit]
CCOc1cccc(C(=O)Nc2ccncc2)c1 | inconclusive [inhibitor, single point]
O=C1CC(N2CCC(c3nc4ccccc4s3)CC2)C(=O)N1Cc1ccccc1 (stereo not drawn) | inactive
O=C(c1ccc([N+](=O)[O-])o1)N1CCc2ccccc2C1 | inconclusive [inhibitor, single point]
COc1ccc(S(=O)(=O)Nc2ccccc2C(=O)NCc2cccnc2)cc1OC | inconclusive [inhibitor, single point]
CCOc1ccc(S(=O)(=O)Nc2ccc(C(=O)NCC(c3ccco3)N3CCCCC3)cc2)cc1 (stereo not drawn) | inconclusive [inhibitor, partial curve]
C=CCSc1nc2c(c(=O)[nH]c(=O)n2C)n1Cc1ccc(C)cc1 | inconclusive [inhibitor, single point]
Cc1ccc(NS(=O)(=O)c2ccc3c(c2)oc(=O)n3C)cc1C | inconclusive [inhibitor, single point]
O=C(O)c1ccc(N/C(=N\S(=O)(=O)c2ccc(Cl)cc2)c2ccccc2)cc1 | inconclusive [inhibitor, single point]
O=C(NCC(c1ccc(F)cc1)N1CCOCC1)c1cc(F)c(F)c(F)c1F (stereo not drawn) | inactive

SMILES | Potency
Cc1onc(-c2c(F)cccc2Cl)c1C(=O)Nc1cccc(S(=O)(=O)N2CCCCC2)c1 | inconclusive [inhibitor, single point]
COc1cc(OC)c2c(-c3ccccc3)cc(=O)oc2c1C(CC(=O)N1CCOCC1)c1ccc2c(c1)OCO2 (stereo not drawn) | inconclusive [inhibitor, partial curve]
O=[N+]([O-])c1ccc(Sc2nnnn2-c2ccccc2)c(Cl)c1 | inactive
COC(=O)C1=C(c2ccc(-c3ccccc3)c(F)c2)C[C@@H]2CC[C@H]1N2C(=O)N1CCc2cc(OC)c(OC)cc2C1 | inconclusive [inhibitor, full curve]
COc1cc(CNc2nc(C)c([N+](=O)[O-])c(C)c2C#N)cc(OC)c1 | inconclusive [inhibitor, partial curve]
O=C(NCC1CCCO1)C(=O)N/N=C/c1cc(Cl)ccc1O (stereo not drawn) | inactive
O=C(NC1CCCC1)C(c1ccccc1F)N(C(=O)c1ccco1)C1CCCC1 (stereo not drawn) | inconclusive [inhibitor, single point]
CCOC(=O)C(NCc1ccccc1OC)(NC(=O)c1ccccc1)C(F)(F)F (stereo not drawn) | inactive
CC(C)Oc1ccc(C(=O)OCC(=O)NC2CCCCCC2)cc1 | active: 11.2 µM
C/C(=N\Nc1nc2ccccc2s1)c1ccc(Br)s1 | active: 11.2 µM
CSc1ccc(CN2CCC(C(=O)NCc3ccc(C)cc3)CC2)cc1 | inconclusive [inhibitor, single point]
CN(C)CCCN(C(=O)c1ccco1)c1nc(-c2ccc(Cl)cc2)cs1 | active: 11.2 µM
CCC(c1nnnn1CCc1ccccc1)N(Cc1ccco1)Cc1cc2cc(C)cc(C)c2[nH]c1=O (stereo not drawn) | active: 10 µM
COC(=O)c1sc(S(=O)(=O)Oc2ccccc2NC(C)=O)c(C(=O)OC)c1C | inconclusive [inhibitor, partial curve]
CCCCn1c(N)c(N(Cc2ccccc2OC)C(=O)c2ccc(N3CCCC3=O)cc2)c(=O)[nH]c1=O | inconclusive [inhibitor, full curve, poor fit]
Cn1c(=O)c2sccc2n(Cc2ccccc2)c1=O | inconclusive [inhibitor, single point]
Cc1[nH]c2ccc(F)cc2c1CCN(Cc1cccnc1)C(=S)Nc1ccccc1 | inconclusive [inhibitor, single point]
CC1CCCCN1CCCNC(=O)C1CCN(c2nc3ccccc3o2)CC1 (stereo not drawn) | inconclusive [inhibitor, single point]
CN1CCN(C2=C(NS(=O)(=O)c3cccs3)C(=O)c3ccccc3C2=O)CC1 | active: 11.2 µM
Clc1ccc(-c2[nH]ncc2N=Nc2ccccc2)cc1 | inconclusive [inhibitor, partial curve]
CC(=O)c1ccc(OCc2cccc(C(F)(F)F)c2)cc1O | inactive
COc1ccc(Br)cc1C(=O)Nc1ccc(C(=O)NCC(C)C)cc1 | inconclusive [inhibitor, partial curve]
CC(=O)N1CCN(c2ccc(NC(=O)c3ccc([N+](=O)[O-])o3)cc2Cl)CC1 | inconclusive [inhibitor, partial curve, poor fit]

SMILES | Potency
CN(C)c1ccc(/C=C2\Oc3ccc(C#Cc4cccc(N)c4)cc3C2=O)cc1 | inconclusive [inhibitor, full curve]
O=C(Cc1ccccc1)NNc1c2ccccc2nc2ccccc12 | inconclusive [inhibitor, partial curve]
CCn1c(=NC(=O)CS(=O)(=O)c2ccc(C)cc2)sc2cccc(OC)c21 | inconclusive [inhibitor, partial curve, poor fit]
Cc1ccc(Nc2nc3c(c(=O)[nH]2)CCCC3)cc1 | inconclusive [inhibitor, single point]
C=CCn1c(C)cc(C(=O)COc2ccc(S(=O)(=O)N3CCCC3)cc2[N+](=O)[O-])c1C | inconclusive [inhibitor, partial curve]
COc1ccc(CSC(=N)N)cc1[N+](=O)[O-] | inconclusive [inhibitor, single point]
CCC1(O)CC(c2ccccc2)=NN1C(=O)c1ccccc1F (stereo not drawn) | inactive
Cc1cccc(CSc2nc3[nH]ncc3c(=O)[nH]2)c1 | inactive
COc1ccc(Cc2nc(C(=O)Nc3ccc(OC)cc3)cs2)cc1 | inconclusive [inhibitor, partial curve]
CCc1nc(SCC(=O)N2CCCC2)c2ccccc2n1 | inconclusive [inhibitor, single point]
COc1cccc(-c2nn(-c3ccccc3)cc2CN(C)Cc2ccno2)c1 | inconclusive [inhibitor, partial curve]
CCCOc1ccc(N2C(=O)CC(N3CCN(c4ccc([N+](=O)[O-])cc4)CC3)C2=O)cc1 (stereo not drawn) | inconclusive [inhibitor, single point]
COCc1ccc(-c2c(-c3cc(OC)cc(OC)c3)oc(=O)c3cc(OC)c(OC)cc23)cc1 | inconclusive [inhibitor, partial curve]
COc1cc(/C=N/NC(=O)CC2(C)OCCCO2)ccc1OCc1ccccc1 | inconclusive [inhibitor, single point]
CCCn1c2c(c(=N)c3c1CCC3)CCC2 | inconclusive [inhibitor, full curve]
CCOC(=O)c1c(NC(=O)CN2CCCCC2)sc(CN(C)C)c1-c1ccccc1 | active: 22.4 µM
CCOC(=O)c1ccc(Nc2cc(C)nc(N3CCOCC3)n2)cc1 | inconclusive [inhibitor, partial curve]
COCC(C)(C)COS(N)(=O)=O | inactive
CCCCOC(=O)c1ccc(NC(=O)COC(=O)CSc2nc(C)cc(C)n2)cc1 | inactive
O=C(Nc1ccc2c(c1)OCCO2)C(=S)NCc1ccccc1 | inactive
CC(C)(C)c1ccc(OCCC(=O)Nc2cccc(S(=O)(=O)N3CCCCC3)c2)cc1 | inconclusive [inhibitor, partial curve]
Cn1c(=O)cc(NCCc2ccccc2)[nH]c1=O | inconclusive [inhibitor, partial curve, poor fit]
